Measured values from PubChem BioAssay AID463173 (ICCB-Longwood Screening Facility, Harvard Medical School, 2010).
Among all 52,000 compounds or so, about 1,700 (3.3%) were called active. No stated cut-off is given here; in the data, active means survival mostly below about 52% (no sharp cut-off); inactive means mostly above about 56%. This is one part of the list.

system: Wild type; assay: growth inhibition of S. aureus wild type versus tarO mutant, primary screen, teichoic acid synthesis inhibitors, RN4220, OD600 (AID 463173); details: S. aureus RN4220 wild type/DeltatarO growth, OD600, 18 h, stronger effect = lower value, screened at 18.75 µg/mL (by protocol)

Row | SMILES | survival
1 | COc1ccc(-c2csc3ncnc(Nc4cc(OC)cc(OC)c4)c23)cc1 | inactive: 124%
2 | CC(C)C(=O)Nc1ccc2nc(SCC(=O)N3CCc4ccccc43)sc2c1 | inactive: 106%
3 | O=C(Nc1ccc2oc(-c3cccc(F)c3)nc2c1)c1ccc2ccccc2c1 | inactive: 81%
4 | Cc1cc(C)cc(NC(=O)c2cc(S(=O)(=O)N3CCc4ccccc43)cn2C)c1 | inactive: 82%
5 | COc1ccccc1CNC(=O)c1ccc2c(c1)N(Cc1c(F)cccc1Cl)C(=O)CS2 | inactive: 66%
6 | CC(C)c1ccc(NC(=O)Cn2cc(S(=O)(=O)Cc3ccccc3Cl)c3ccccc32)cc1 | inactive: 72%
7 | CC1CCN(C(=O)CSc2nc3ccccc3nc2Cc2ccccc2)CC1 | inactive: 73%
8 | CCOc1ccccc1N1CCN(S(=O)(=O)c2ccc(C3CCCCC3)cc2)CC1 | inactive: 60%
9 | COc1cccc(NC(=O)Cn2c(=O)n(CCCCC(=O)NCc3ccccc3Cl)c(=O)c3ccccc32)c1 | inactive: 80%
10 | CCCCC(Sc1nc2cc3c(cc2c(=O)n1CCCC(=O)NCc1ccc2c(c1)OCO2)OCO3)C(=O)OCC (stereo unspecified) | inactive: 99%
11 | O=C(CSc1ncc(S(=O)(=O)c2ccc(Br)cc2)c(=O)[nH]1)Nc1ccc2c(c1)OCCO2 | inactive: 87%
12 | Cc1ccc(CNC(=O)Cn2c3ncccc3c(=O)n2-c2ccc(C)cc2)cc1 | inactive: 135%
13 | COc1ccccc1N1CCN(c2cc(C)nc3nncn23)CC1 | inactive: 90%
14 | COc1ccc(C)c2sc(N3CCN(C(=O)c4ccco4)CC3)nc12 | active: -1%
15 | CCOc1ccc(CNC(=O)CSc2c3c(nc4ccc(Cl)cc24)CCCC3)cc1 | inactive: 84%
16 | CC(C)c1cc(-c2nc(-c3cccc(Cl)c3)no2)n[nH]1 | inactive: 131%
17 | Cc1nn2c(=O)cc(COC(=O)c3ccc(NC(=O)COc4ccccc4F)cc3)nc2s1 | inactive: 143%
18 | Cc1ccc2oc(C(=O)Nc3sc4c(c3C(=O)NCc3ccco3)CCC4)cc(=O)c2c1 | inactive: 84%
19 | Cc1nc2c(c(C)nn2C(C)(C)C)c(C)c1CCC(=O)Nc1ccc(F)cc1 | inactive: 93%

Row | SMILES | survival
20 | CC(=O)NC(CC(=O)O)c1ccc(F)cc1 (stereo unspecified) | inactive: 107%
21 | CC(=O)c1ccc(N2CCN(C(=O)CCCn3c(=O)[nH]c4ccsc4c3=O)CC2)cc1 | inactive: 66%
22 | Cn1c(C(=O)NCc2cccc(Cl)c2)cc2oc3ccccc3c21 | inactive: 99%
23 | Cc1nn(CC(=O)NCc2ccc(N(C)C)cc2)c(=O)c2nn(-c3ccccc3)c(C)c12 | inactive: 88%
24 | COc1ccc(C(CC(=O)Nc2ccc(Br)cn2)N2Cc3ccccc3C2=O)cc1 (stereo unspecified) | inactive: 59%
25 | COCCCNC(=O)c1ccc(Cn2c(=O)c3cccn3c3cccnc32)cc1 | inactive: 95%
26 | O=[N+]([O-])c1ccc(O)c(-c2ccnc3cc(-c4ccccc4)nn23)c1 | inactive: 29%
27 | Cc1ccc(Cn2c(CN3CCN(c4cccc(Cl)c4)CC3)nc3c2c(=O)n(C)c(=O)n3C)cc1 | inactive: 110%
28 | Cn1ccnc1-c1ccc(-c2nccn2C)cc1 | inactive: 110%
29 | COc1ccccc1CCNC(=O)C1CCN(c2nnc(C)c3c(C)n(-c4ccc(C)cc4)nc23)CC1 | inactive: 58%
30 | COc1ccc(NC(=O)CC(C)S(=O)(=O)c2cc3c(cc2C)NC(=O)CO3)cc1OC (stereo unspecified) | inactive: 79%
31 | O=C(Nc1nnc(S(=O)(=O)N2CCCCCC2)s1)c1ccc(Cl)cc1 | inactive: 74%
32 | CCCNc1nc(Cl)nc(Cl)n1 | inactive: 99%
33 | Cc1ccc2c(=O)cc(C(=O)Nc3c(C(=O)c4ccc(F)cc4)oc4ccccc34)oc2c1C | inactive: 84%
34 | CSc1nn(CC(=O)Nc2cc(C)ccc2C)c(N)c1S(=O)(=O)c1ccccc1 | inactive: 45%
35 | COc1ccccc1CNC(=O)C1CCN(c2nnc(C)c3c(C)n(-c4ccccc4)nc23)CC1 | inactive: 86%
36 | CC(C)CC(=O)OCc1cc(=O)n2nc(C3CCCCC3)sc2n1 | inactive: 67%
37 | CCC(CC)C(=O)Nc1cc(-c2nc3cccnc3s2)ccc1C | inactive: 96%
38 | Cc1cccc(C)c1OC(=O)CSc1nnc(-c2ccc3c(c2)OCO3)o1 | inactive: 84%

Row | SMILES | survival
39 | CCOC(=O)Cn1c(=O)oc2cc(S(=O)(=O)N3CCN(c4ccc(F)cc4)CC3)ccc21 | inactive: 130%
40 | CCOc1ccc(CC(C(=O)NN)C(=O)NN)cc1CN(C)C | inactive: 115%
41 | Cc1ccc(NC(=O)CN2C(=O)CC(c3ccc(C)c(C)c3)=Nc3ccccc32)cc1 | inactive: 68%
42 | COc1ccc(CCNC(=O)c2c(C)oc3ncn(CC(C)C)c(=O)c23)c(OC)c1 | inactive: 78%
43 | O=C(NC1CCCCC1)C(c1ccncc1)N(CC1CCCO1)C(=O)C(F)(F)F (stereo unspecified) | inactive: 103%
44 | COc1ccc(Nc2c(-c3ccsc3)nc3nc(C)cc(C)n23)cc1 | inactive: 97%
45 | Cc1c(C(=O)O)sc2nc(-c3ccccc3)cn12 | inactive: 94%
46 | CC(C)C(=O)Nc1nnc(S(=O)(=O)N2c3ccccc3CC2C)s1 (stereo unspecified) | inactive: 81%
47 | CCSc1nc2ccccc2c(OCc2cc(C(=O)OC)ccc2OC)c1C(=O)OC | active: -15%
48 | COC(=O)c1c(C)sc(-c2c(-c3ccc(OC)c(F)c3)[nH]c3c2c(=O)n(C)c(=O)n3C)c1O | inactive: 111%
49 | Cc1ccc(C(C)C)c(OCC(=O)Nc2ccc(O)c(-c3nc4cc(Cl)ccc4o3)c2)c1 | inactive: 74%
50 | CC1(C)Cc2ccccc2-c2nc(NN)[nH]c(=O)c21 | inactive: 100%
51 | CCCOc1cccc(C(=O)Nc2cccc(NC(=O)c3ccc(Cl)cc3Cl)c2)c1 | inactive: 91%
52 | O=C(Cn1cc(C(=O)c2cccs2)c2ccccc21)Nc1ccc(Br)cc1 | inactive: 108%
53 | O=C1CCSC2(C(=O)N(Cc3ccc(F)cc3)c3ccccc32)N1c1cccc(F)c1 (stereo unspecified) | inactive: 74%
54 | CCN1C(=O)c2ccccc2S(=O)c2ccc(C(=O)NCc3ccc(Cl)cc3)cc21 (stereo unspecified) | inactive: 78%
55 | CCN(c1cccc(C)c1)S(=O)(=O)c1c(C)nc2sc(C)cn2c1=O | inactive: 81%
56 | CCOC(=O)c1c(-c2ccccc2)oc2ccc(OCc3cccc(Br)c3)cc12 | inactive: 55%
